This is one part of the list.
What was measured:
Experiment in all cases: glycan array binding signal (z-score within array); higher = stronger binding
Settings in all cases: glycan notation: IUPAC condensed, linker removed
[1] = target: Fuc(a1-2)[GalNAc(a1-3)]Gal(b1-4)Glc
Method in brief: (§1)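 Arrays were curated from the Consortium for Functional Glycomics database, 3228 in total, and kept only where the protein sequence was available. Binding is expressed as a within-array Z-score. This score was averaged across arrays of the same protein sequence at different concentrations or buffers and across linkers, and negative values can be read as non-binding.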

[2] = target: Fuc(a1-2)[GalNAc(a1-3)]Gal(b1-4)GlcNAc
Method in brief: as §1

[3] = target: Fuc(a1-2)[GalNAc(a1-3)]Gal(b1-4)GlcNAc(b1-2)Man(a1-3)[Fuc(a1-2)[GalNAc(a1-3)]Gal(b1-4)GlcNAc(b1-2)Man(a1-6)]Man(b1-4)GlcNAc(b1-4)GlcNAc
Method in brief: as §1

[4] = target: Fuc(a1-2)[GalNAc(a1-3)]Gal(b1-4)GlcNAc(b1-2)Man(a1-3)[Fuc(a1-2)[GalNAc(a1-3)]Gal(b1-4)GlcNAc(b1-2)Man(a1-6)]Man(b1-4)GlcNAc(b1-4)[Fuc(a1-6)]GlcNAc
Method in brief: as §1

[5] = target: Fuc(a1-2)[GalNAc(a1-3)]Gal(b1-4)GlcNAc(b1-3)Gal(b1-4)GlcNAc
Method in brief: as §1

[6] = target: Fuc(a1-2)[GalNAc(a1-3)]Gal(b1-4)GlcNAc(b1-3)Gal(b1-4)GlcNAc(b1-3)Gal(b1-4)GlcNAc
Method in brief: as §1

[7] = target: Fuc(a1-2)[GalNAc(a1-3)]Gal(b1-4)GlcNAc(b1-3)GalNAc
Method in brief: as §1

[8] = target: Fuc(a1-2)[GalNAc(a1-3)]Gal(b1-4)[Fuc(a1-3)]GlcNAc
Method in brief: as §1

[9] = target: Fuc(a1-2)[GalNAc(a1-3)]Gal(b1-4)[Fuc(a1-3)]GlcNAc(b1-3)GalNAc
Method in brief: as §1

[10] = target: Fuc(a1-2)[GalNAc(a1-4)]Gal(b1-4)GlcNAc
Method in brief: as §1

[11] = target: Fuc(a1-2)[GalNAc(b1-3)]Gal
Method in brief: as §1

[12] = target: Fuc(a1-3)GlcNAc
Method in brief: as §1

[13] = target: Fuc(a1-3)[Gal(b1-4)]Glc6S
Method in brief: as §1

[14] = target: Fuc(a1-3)[Gal(b1-4)]GlcNAc
Method in brief: as §1

[15] = target: Fuc(a1-3)[Gal(b1-4)]GlcNAc(b1-2)Man(a1-3)[Fuc(a1-3)[Gal(b1-4)]GlcNAc(b1-2)Man(a1-6)]Man(b1-4)GlcNAc(b1-4)GlcNAc
Method in brief: as §1

[16] = target: Fuc(a1-3)[Gal(b1-4)]GlcNAc(b1-2)Man(a1-3)[Fuc(a1-3)[Gal(b1-4)]GlcNAc(b1-2)Man(a1-6)]Man(b1-4)GlcNAc(b1-4)[Fuc(a1-6)]GlcNAc
Method in brief: as §1

[17] = target: Fuc(a1-3)[Gal(b1-4)]GlcNAc(b1-3)Gal(b1-3)[Fuc(a1-4)]GlcNAc
Method in brief: as §1

[18] = target: Fuc(a1-3)[Gal(b1-4)]GlcNAc(b1-3)GalNAc
Method in brief: as §1

[19] = target: Fuc(a1-3)[Gal(b1-4)]GlcNAc(b1-4)Gal(b1-4)[Fuc(a1-3)]GlcNAc
Method in brief: as §1

[20] = target: Fuc(a1-3)[Gal(b1-4)]GlcNAc(b1-4)Gal(b1-4)[Fuc(a1-3)]GlcNAc(b1-4)Gal(b1-4)[Fuc(a1-3)]GlcNAc
Method in brief: as §1

[21] = target: Fuc(a1-3)[Gal(b1-4)]GlcNAc(b1-6)GalNAc
Method in brief: as §1

[22] = target: Fuc(a1-3)[Gal(b1-4)]GlcNAc(b1-6)[Gal(b1-3)GlcNAc(b1-3)]Gal(b1-4)Glc
Method in brief: as §1

[23] = target: Fuc(a1-3)[Gal(b1-4)]GlcNAc(b1-6)[Neu5Ac(a2-3)Gal(b1-3)]GalNAc
Method in brief: as §1

[24] = target: Fuc(a1-3)[Gal(b1-4)]GlcNAc6S
Method in brief: as §1

[25] = target: Fuc(a1-3)[Gal3S(b1-4)]GlcNAc
Method in brief: as §1

[26] = target: Fuc(a1-3)[Gal3S(b1-4)]GlcNAc6S
Method in brief: as §1

[27] = target: Fuc(a1-3)[GalNAc(b1-4)]GlcNAc
Method in brief: as §1

[28] = target: Fuc(a1-4)GlcNAc
Method in brief: as §1

[29] = target: Fuc(b1-3)GlcNAc
Method in brief: as §1

[30] = target: Gal(a1-2)Gal
Method in brief: as §1

[31] = target: Gal(a1-3)Gal
Method in brief: as §1

[32] = target: Gal(a1-3)Gal(b1-3)GlcNAc
Method in brief: as §1

[33] = target: Gal(a1-3)Gal(b1-3)GlcNAc(b1-2)Man(a1-3)[Gal(a1-3)Gal(b1-3)GlcNAc(b1-2)Man(a1-6)]Man(b1-4)GlcNAc(b1-4)GlcNAc
Method in brief: as §1

[34] = target: Gal(a1-3)Gal(b1-3)GlcNAc(b1-3)GalNAc
Method in brief: as §1

[35] = target: Gal(a1-3)Gal(b1-3)[Fuc(a1-4)]GlcNAc(b1-2)Man(a1-3)[Gal(a1-3)Gal(b1-3)[Fuc(a1-4)]GlcNAc(b1-2)Man(a1-6)]Man(b1-4)GlcNAc(b1-4)GlcNAc
Method in brief: as §1

[36] = target: Gal(a1-3)Gal(b1-4)Glc
Method in brief: as §1

[37] = target: Gal(a1-3)Gal(b1-4)GlcNAc
Method in brief: as §1

[38] = target: Gal(a1-3)Gal(b1-4)GlcNAc(b1-3)GalNAc
Method in brief: as §1

[39] = target: Gal(a1-3)Gal(b1-4)[Fuc(a1-3)]GlcNAc
Method in brief: as §1

[40] = target: Gal(a1-3)Gal(b1-4)[Fuc(a1-3)]GlcNAc(b1-2)Man(a1-3)[Gal(a1-3)Gal(b1-4)[Fuc(a1-3)]GlcNAc(b1-2)Man(a1-6)]Man(b1-4)GlcNAc(b1-4)GlcNAc
Method in brief: as §1

[41] = target: Gal(a1-3)GalNAc
Method in brief: as §1

[42] = target: Gal(a1-3)[Gal(a1-4)]Gal(b1-4)GlcNAc
Method in brief: as §1

[43] = target: Gal(a1-4)Gal(b1-3)GlcNAc(b1-2)Man(a1-3)[Gal(a1-4)Gal(b1-3)GlcNAc(b1-2)Man(a1-6)]Man(b1-4)GlcNAc(b1-4)GlcNAc
Method in brief: as §1

[44] = target: Gal(a1-4)Gal(b1-4)Glc
Method in brief: as §1

[45] = target: Gal(a1-4)Gal(b1-4)GlcNAc
Method in brief: as §1

[46] = target: Gal(a1-4)Gal(b1-4)GlcNAc(b1-2)Man(a1-3)[Gal(a1-4)Gal(b1-4)GlcNAc(b1-2)Man(a1-6)]Man(b1-4)GlcNAc(b1-4)GlcNAc
Method in brief: as §1

[47] = target: Gal(a1-4)Gal(b1-4)GlcNAc(b1-3)Gal(b1-4)Glc
Method in brief: as §1

[48] = target: Gal(a1-4)GlcNAc
Method in brief: as §1

[49] = target: Gal(a1-6)Glc
Method in brief: as §1

[50] = target: Gal(b1-2)Gal
Method in brief: as §1

[51] = target: Gal(b1-3)Gal
Method in brief: as §1

[52] = target: Gal(b1-3)Gal(b1-4)GlcNAc
Method in brief: as §1

[53] = target: Gal(b1-3)Gal(b1-4)GlcNAc(b1-2)Man(a1-3)[Gal(b1-3)Gal(b1-4)GlcNAc(b1-2)Man(a1-6)]Man(b1-4)GlcNAc(b1-4)GlcNAc
Method in brief: as §1

[54] = target: Gal(b1-3)GalNAc
Method in brief: as §1

[55] = target: Gal(b1-3)GalNAc(a1-3)[Fuc(a1-2)]Gal(b1-4)Glc
Method in brief: as §1

[56] = target: Gal(b1-3)GalNAc(a1-3)[Fuc(a1-2)]Gal(b1-4)GlcNAc
Method in brief: as §1

[57] = target: Gal(b1-3)GalNAc(b1-3)Gal(a1-4)Gal(b1-4)Glc
Method in brief: as §1

[58] = target: Gal(b1-3)GalNAc(b1-4)Gal(b1-4)Glc
Method in brief: as §1

[59] = target: Gal(b1-3)GalNAc(b1-4)[Neu5Ac(a2-3)]Gal(b1-4)Glc
Method in brief: as §1

[60] = target: Gal(b1-3)GlcNAc
Method in brief: as §1

B1: UEA-I (Ulex europaeus), P22972 (protein)
chain: SDDLSFKFKNFSQNGKDLSFQGDASVIETGVLQLNKVGNNLPDETGGIARYIAPIHIWNCNTGEVASFITSFSFFMETSANPKAATDGLTFFLAPPDSPLRRAGGYFGLFEDTKDNDSSYQTVAVEFDTIGSPVNFDDPGFPHIGIDVNRVKSINAERWNKRYGLNNVANVEIIYEASSKTLTASLTYPSDQTSISVTSIVDLKEILPEWVSVGFSGGTYIGRQATHEVLNWYFTSNLIN
glycan array binding signal (z-score) [1]: -0.175
glycan array binding signal (z-score) [2]: -0.183
glycan array binding signal (z-score) [3]: -0.181
glycan array binding signal (z-score) [4]: -0.155
glycan array binding signal (z-score) [5]: -0.179
glycan array binding signal (z-score) [6]: -0.1
glycan array binding signal (z-score) [7]: -0.182
glycan array binding signal (z-score) [8]: -0.174
glycan array binding signal (z-score) [9]: -0.149
glycan array binding signal (z-score) [10]: 4.61
glycan array binding signal (z-score) [11]: -0.168
glycan array binding signal (z-score) [12]: 0.763
glycan array binding signal (z-score) [13]: -0.17
glycan array binding signal (z-score) [14]: -0.076
glycan array binding signal (z-score) [15]: -0.182
glycan array binding signal (z-score) [16]: -0.169
glycan array binding signal (z-score) [17]: -0.18
glycan array binding signal (z-score) [18]: -0.172
glycan array binding signal (z-score) [19]: -0.18
glycan array binding signal (z-score) [20]: -0.178
glycan array binding signal (z-score) [21]: -0.166
glycan array binding signal (z-score) [22]: -0.179
glycan array binding signal (z-score) [23]: -0.09
glycan array binding signal (z-score) [24]: -0.173
glycan array binding signal (z-score) [25]: -0.176
glycan array binding signal (z-score) [26]: 0.023
glycan array binding signal (z-score) [27]: -0.16
glycan array binding signal (z-score) [28]: 0.333
glycan array binding signal (z-score) [29]: -0.178
glycan array binding signal (z-score) [30]: -0.167
glycan array binding signal (z-score) [31]: -0.179
glycan array binding signal (z-score) [32]: -0.18
glycan array binding signal (z-score) [33]: -0.179
glycan array binding signal (z-score) [34]: -0.181
glycan array binding signal (z-score) [35]: -0.185
glycan array binding signal (z-score) [36]: -0.172
glycan array binding signal (z-score) [37]: -0.186
glycan array binding signal (z-score) [38]: -0.181
glycan array binding signal (z-score) [39]: -0.184
glycan array binding signal (z-score) [40]: -0.177
glycan array binding signal (z-score) [41]: -0.187
glycan array binding signal (z-score) [42]: -0.184
glycan array binding signal (z-score) [43]: -0.17
glycan array binding signal (z-score) [44]: -0.167
glycan array binding signal (z-score) [45]: -0.176
glycan array binding signal (z-score) [46]: -0.126
glycan array binding signal (z-score) [47]: -0.177
glycan array binding signal (z-score) [48]: -0.174
glycan array binding signal (z-score) [49]: -0.182
glycan array binding signal (z-score) [50]: -0.166
glycan array binding signal (z-score) [51]: -0.171
glycan array binding signal (z-score) [52]: -0.18
glycan array binding signal (z-score) [53]: -0.174
glycan array binding signal (z-score) [54]: -0.184
glycan array binding signal (z-score) [55]: -0.177
glycan array binding signal (z-score) [56]: -0.182
glycan array binding signal (z-score) [57]: -0.181
glycan array binding signal (z-score) [58]: -0.168
glycan array binding signal (z-score) [59]: -0.18
glycan array binding signal (z-score) [60]: -0.177

— the supplement of paper PMC8728848
